The text below walks through data of PubChem BioAssay AID1347073 (National Center for Advancing Translational Sciences (NCATS), 2019).

Structures are written as SMILES. Screen size: about 45,000 compounds; about 200 (0.44%) were called active. Inconclusive results (about 7%) are left out. Calls follow the shape of the dose curve; as a rule, active = well fitted activation curve with a large enough effect; inconclusive = small, poorly fitted or top-dose-only effect; inactive = no such curve, though single readings can be large or run the other way. Some of the results follow.

This test in a line: qHTS of TDP-43 Inhibitors: NCGC Sytravon Library Screen. Also: 0% is about no effect; nearly all actives have a fitted effect of over 55% in size. Particulars: yeast TDP-43 toxicity rescue, BacTiter-Glo growth, 24 h; series mostly up to 46.1 µM; growth rescue (activation): at the top concentration. From the text:
The goal of this project is to identify new chemical probes capable of reversing the toxicity associated with TDP-43 which is associated with frontotemporal lobar degeneration and amyotrophic lateral sclerosis. These compounds will provide a complementary approach to deciphering the tangled mechanisms of toxicity and protection that we have uncovered through genome-wide genetic screens and are beginning to uncover in a large-scale proteomics analysis with mass spectroscopy. To this end, a miniaturized assay was developed to be screened against the Molecular Libraries Small Molecule Repository (MLSMR) to discover TDP-43 inhibitors. Please note that in the set-up this yeast-based assay compounds that inhibit as TDP-43, have a read-out as activators. NIH Chemical Genomics Center [NCGC] NIH Molecular Libraries Probe Centers Network [MLPCN] Assay Submitter (PI): Susan Lindquist, Whitehead Institute/MIT MLPCN Grant: R21 NS060957
Dispense 2.5 microL yeast galactose medium per 1536-well plate, pin compound, dispense 2.5 microL TDP-43 expressing yeast in galactose medium at OD600=0.02 (pregrown in raffinose medium to mid-log phase) per well, incubate for 24 hr at 30 deg C, and cell growth will be measured using 5 microL of Bactiter/Glo reagent to entire plate and read using Luminescence Protocol in ViewLux.
(In general: qHTS replaces the single test concentration by a dilution series.)
`OCCN1CCN(c2cnc(-c3ccsc3)cn2)CC1`: the “growth rescue (activation)” value is inactive: 7.94%.

Take `CSc1nc(C(C)C)ccc1CNC(=O)CC(C)c1ccccc1` (centres undefined): the “growth rescue (activation)” value was inactive: -3.68%.

With `Cc1cc(NC(=O)c2ccc(Br)o2)ccc1NC(=O)c1ccco1`, the “growth rescue (activation)” value is inactive: -36%.

`COCCN(C(=O)C(=O)NC1CCCC1)C(C(=O)NC1CCCC1)c1ccccc1F` (centres undefined): the “growth rescue (activation)” value is inactive: 6.19%.

For `CC(C)N(C(=O)CSc1nn2c(=O)c(C(C)(C)C)nnc2s1)c1ccccc1`, the “growth rescue (activation)” value is inactive: 17.1%.

Turning to `Nc1c2c(nc3ccn(Cc4ccccc4)c(=O)c13)CCC2`, the “growth rescue (activation)” value was inactive: 26.8%.

Turning to `CCOC(=O)C(NC(C)=O)(OCc1ccccc1)C(F)(F)F` (centres undefined), the “growth rescue (activation)” value is inactive: 18.6%.

Regarding `CC(=O)c1ccc(Nc2nc(C(N)Cc3ccc(Cl)cc3)cs2)cc1` (centres undefined), the “growth rescue (activation)” value was inactive: -1.18%.

In the case of `CCn1cc(CNC(=O)c2ccc(OC3CCN(Cc4ccccn4)CC3)cc2)cn1`, the “growth rescue (activation)” value was inactive: -20.7%.

With `Cc1cc(C)nc(SCc2ccc(C(=O)NNC(=O)Nc3cccc(Cl)c3)cc2)n1`, the “growth rescue (activation)” value is inactive: -14.8%.

For the compound `N#Cc1nc(-c2ccc(OCc3ccc(Cl)cc3)cc2)oc1NCCCn1ccnc1`, the “growth rescue (activation)” value is inactive: -17%.

Consider `O=C(COC(=O)C1=NN(c2ccccc2)C(=O)CC1)Nc1nc(-c2ccc(F)cc2)cs1`, for which the “growth rescue (activation)” value is inactive: -9.07%.

As for `O=C(NCCN1CCNC1=O)c1ccc2sc([C@@H]3O[C@H](CO)[C@H](O)[C@H](O)[C@H]3O)nc2c1`, the “growth rescue (activation)” value was inactive: 0.88%.

With `CCN(c1ccccc1)S(=O)(=O)c1cc(C(=O)Nc2cccc(Cl)c2)ccc1F`, the “growth rescue (activation)” value was inactive: 18.1%.

`CC(C)Oc1ccc(Br)cc1C(=O)N/N=C/c1c[nH]c2ccccc12`: the “growth rescue (activation)” value was inactive: 0.373%.

Turning to `CC(=C/c1ccccc1)/C=C1/SC(N2CCOCC2)=NC1=O`, the “growth rescue (activation)” value was inactive: 13.5%.

As to `CCCC(=O)Nc1ccc(-c2ccc(NC(=O)CCC)cc2)cc1`, the “growth rescue (activation)” value was inactive: 4.37%.

Regarding `O=C(COc1ccc2ccc(=O)oc2c1)N1CCc2ccccc21`, the “growth rescue (activation)” value was inactive: 5.44%.

Turning to `O=C(Cn1ccc([N+](=O)[O-])n1)NCCc1c[nH]c2ccccc12`, the “growth rescue (activation)” value is inactive: 8.64%.

As for `COc1ccc(CNS(=O)(=O)c2ccc(S(=O)(=O)NC3CC3)cc2)cc1`, the “growth rescue (activation)” value is inactive: -27.5%.

In the case of `COc1ccc(-c2coc3cc(OC)cc(O)c3c2=O)cc1`, the “growth rescue (activation)” value was inactive: 34%.

Consider `Cc1ccc2c(COC(=O)c3ccccc3Cl)cc(=O)oc2c1`, for which the “growth rescue (activation)” value was inactive: -17.4%.

For `COc1ccc(C)cc1N(CC(=O)NC1CCCC1)C(=O)Cn1nnc(-c2ccc(C)o2)n1`, the “growth rescue (activation)” value was inactive: -9.08%.

For the compound `CC(NC(=O)c1ccco1)C(=O)N1CCN(C(c2ccccc2)c2ccccc2)CC1` (centres undefined), the “growth rescue (activation)” value is inactive: 12.5%.

For `CC(C)C(NC(=O)c1ccc([N+](=O)[O-])cc1Cl)C(=O)N1CCCC1` (centres undefined), the “growth rescue (activation)” value was inactive: 5.04%.

`O=C(c1cc(-c2ccc(O)cc2)on1)N1CCOCC1`: the “growth rescue (activation)” value was inactive: 17.5%.

With `COc1ccc(C2=CC(c3ccco3)n3ncnc3N2)cc1` (centres undefined), the “growth rescue (activation)” value was inactive: 27.8%.

In the case of `O=C(Nc1nccs1)c1cc(Cl)ccc1[N+](=O)[O-]`, the “growth rescue (activation)” value was inactive: 11.7%.

`CCOc1ccc(C(=O)NC(C)(C)CC)cc1`: the “growth rescue (activation)” value was inactive: 10.5%.

`COc1ccc(CNC(=O)CC23CC4CC(CC(C4)C2)C3)cc1`: the “growth rescue (activation)” value is inactive: 14.4%.

Take `O=C(N/N=C/c1ccccc1OC(F)F)c1cc(-c2ccncc2)nc2ccccc12`: the “growth rescue (activation)” value was inactive: 12.2%.

`O=C(CCNS(=O)(=O)/C=C/c1ccccc1)NCCc1c[nH]c2ccccc12`: the “growth rescue (activation)” value was inactive: 2.38%.

In the case of `O=C(c1ccc(Br)cc1)c1cn[nH]c1-c1ccccc1O`, the “growth rescue (activation)” value is inactive: 2.22%.

On to `COc1ccc2[nH]c(N=Nc3ccccc3C)c(O)c2c1`, for which the “growth rescue (activation)” value was inactive: 3.68%.

For the compound `Cc1cccc(/C=N/NC(=O)c2ccc(NC(=O)c3cccc(Cl)c3)cc2)n1`, the “growth rescue (activation)” value was inactive: 8.76%.

In the case of `COc1cc(NC(=S)N2CCN(Cc3ccccc3)CC2)cc(OC)c1`, the “growth rescue (activation)” value was inactive: 3.94%.

With `COc1cc(/C=N/NC(=O)c2ccc3nc[nH]c3c2)ccc1O`, the “growth rescue (activation)” value is inactive: 18.6%.

For the compound `Cc1ccc(NC(=S)N2CCC(NC(=O)c3cccc(F)c3)CC2)cc1`, the “growth rescue (activation)” value was inactive: 9.98%.

For `NC(c1ccc(F)c(F)c1)c1nc(-c2cc(F)cc(F)c2)cs1` (centres undefined), the “growth rescue (activation)” value is inactive: 7.55%.

On to `Cc1occc1-c1nnc(SCC(=O)NC2CCCC2)n1C`, for which the “growth rescue (activation)” value was inactive: -5.79%.

As for `CCOC(=O)c1c(C)[nH]c(C)c1C(=O)CSc1nc2ccccc2n1CC`, the “growth rescue (activation)” value was inactive: 24%.

In the case of `CCOc1ccc(S(=O)(=O)N(CC)CC)cc1N`, the “growth rescue (activation)” value is inactive: -15.8%.

Consider `CC(NC(=O)c1ccc(=O)oc1)c1ccccc1` (centres undefined), for which the “growth rescue (activation)” value is inactive: 11.7%.

`Cc1ccc2nc(-c3ccc(C)c(NC(=O)Cc4ccccc4)c3)oc2c1`: the “growth rescue (activation)” value was inactive: -8.65%.

`CCC[N+](C)(C)C(C)C(OC(C)=O)c1ccccc1` (centres undefined): the “growth rescue (activation)” value was inactive: -5.34%.

On to `CSc1nc(Sc2cccc(Cl)c2)c2ccccc2n1`, for which the “growth rescue (activation)” value is inactive: 14.9%.

For `CCc1nc2ccc(C(=O)N(C)CC(=O)Nc3ccccc3C(F)(F)F)cc2nc1CC`, the “growth rescue (activation)” value is inactive: 18.6%.

For `COc1cc(OC)cc(C(=O)NCCCNC(=O)c2cccnc2)c1`, the “growth rescue (activation)” value was inactive: -2.64%.

For `Cc1ccc2[nH]c(=O)cc(C(=O)OC(C)C)c2c1`, the “growth rescue (activation)” value was inactive: 7.02%.

Take `N#CC(=C(O)COC(=O)Cc1c[nH]c2ccccc12)c1nc2ccccc2[nH]1`: the “growth rescue (activation)” value was inactive: 12.6%.

For `COc1ccc(C(=O)Nc2ccc(C(=O)OCC(=O)c3cccc4ccccc34)cc2)cc1`, the “growth rescue (activation)” value is inactive: 11.3%.

For the compound `CC(=O)OCc1c(-c2ccccc2)c2cc([N+](=O)[O-])ccc2n1C`, the “growth rescue (activation)” value is inactive: 5.14%.

Turning to `O=C(/C=C/c1ccccc1)Nc1cc(S(=O)(=O)N2CCOCC2)ccc1N1CCCC1`, the “growth rescue (activation)” value was inactive: -26.2%.

With `CCc1nc2c(OCc3ccc(OC)cc3)cccn2c1N(C)C(=O)c1ccco1`, the “growth rescue (activation)” value is inactive: 6.09%.
